Details in all cases: 20 mM HEPES pH 7.9, 100 mM NaCl, 1 mM DTT, 0.2 mg/mL BSA, 0.02% Triton X-100, 2% milk, 0.4 mg/mL salmon testes DNA; 1 h; temperature not stated; high values mean tight binding; double strand, one strand shown; sequences stand for … in GCCTAGCAC…GTGCTAGGTCTTGATTCGCTTGACGCTGCTG
In one assay the target is PU.1 (IVT) (UniProt P17947). Kind of assay: protein-binding microarray (PBM).
In assay [1] the target is T1, FLI1 (endogenous, THP-1 nuclear extract) (UniProt Q01543).
T1 sequence: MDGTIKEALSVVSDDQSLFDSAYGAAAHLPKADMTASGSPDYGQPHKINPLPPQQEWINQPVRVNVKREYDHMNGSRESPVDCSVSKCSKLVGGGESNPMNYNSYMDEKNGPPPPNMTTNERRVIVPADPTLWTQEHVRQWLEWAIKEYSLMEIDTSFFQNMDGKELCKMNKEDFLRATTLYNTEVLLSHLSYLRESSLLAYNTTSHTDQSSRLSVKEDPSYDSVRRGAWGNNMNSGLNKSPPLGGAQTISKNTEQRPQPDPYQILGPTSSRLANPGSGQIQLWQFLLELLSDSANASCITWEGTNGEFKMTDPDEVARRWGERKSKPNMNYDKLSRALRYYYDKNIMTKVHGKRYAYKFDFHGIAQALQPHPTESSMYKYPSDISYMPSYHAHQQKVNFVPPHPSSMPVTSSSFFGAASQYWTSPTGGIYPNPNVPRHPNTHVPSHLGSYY
Kind of assay: nuclear extract protein-binding microarray (nextPBM).

The subject of assay [2] is PU.1 (endogenous, THP-1 nuclear extract) + IRF8 (endogenous, THP-1 nuclear extract). The assay is described as above.

In paper PMC6451091 one finds binding signal data, which are given here for 9 sequences.

This is one part of the list. For part of these data: At the low end of the ranking the order means little. For part of these data: The protein was read in a cell extract, so binding may be indirect.

AGAAACAGGAAGAGAAACTA: the results for the binding signal (in the assay with PU.1 (IVT); in assay [1]; in assay [2]) were 3.84 z-score, 3.1 z-score and 11.6 z-score, respectively.

Regarding AGGTAGAGGAAGTGAAACTG, the binding signal is 3.76 z-score with PU.1 (IVT), 3.74 z-score in assay [1] and 54.5 z-score in assay [2].

Consider GATAAGAGGTACTGAAAGCT, for which the binding signal with PU.1 (IVT) was 0.307 z-score; in assay [1], -0.0604 z-score; in assay [2] it was 1.41 z-score.

Regarding TGGCAGAGTAAGTGAAACTA, the binding signal is -0.089 z-score with PU.1 (IVT), -0.224 z-score in assay [1] and 27 z-score in assay [2].

Take AGAATGAGGAACTGAAACTA: the binding signal amounted to 5.83 z-score with PU.1 (IVT), 3.45 z-score in assay [1] and 63.7 z-score in assay [2].

On to AAATTGAGGAAATGAAACTA, for which the binding signal with PU.1 (IVT) amounted to 4.46 z-score; in assay [1] it was 3.06 z-score; in assay [2], 58.9 z-score.

As to TATAAGAGGAACTGAAAGCT, the binding signal in the assay with PU.1 (IVT) was 3.33 z-score; in assay [1] it was 1.58 z-score; in assay [2], 3.85 z-score.

Turning to TAAAGGACGAACTGAAACCA, the binding signal is -0.363 z-score with PU.1 (IVT), -0.17 z-score in assay [1] and 14 z-score in assay [2].

Take GAAAAGAGGAACTGAAAGCT: the binding signal with PU.1 (IVT) came to 7.31 z-score; in assay [1], 3.55 z-score; in assay [2], 21.9 z-score.
